These are yes or no findings as the source states them, for the method shown. For some of these results: Binding seen in cells or lysates may run through a third protein. Some results given as binding are weak or reduced against the parent protein; the word gives no strength. One block for each substance: values may come before it.
Assays:
[1] = molecular target: FLAG-tagged human DGCR2 (FLAG-hDGCR2) (human) (UniProt P98153); experiment: co-IP; intact cells IP: anti-FLAG antibody added to co-transfected HEK 293T cells before lysis (2-4 h, 4 °C) to bind cell surface FLAG-hDGCR2; unbound antibody washed off, cells lysed in IP buffer, Protein A/G beads
[2] = molecular target: FLAG-tagged human DGCR2 (FLAG-hDGCR2) (human) (UniProt P98153); experiment: co-IP; HEK 293T cells co-transfected; lysates (IP buffer: 20 mM Tris pH 7.6, 50 mM NaCl, 1 mM EDTA, 1 mM NaF, 0.5% Nonidet P-40) immunoprecipitated with anti-FLAG antibody at 4 °C; blotted with anti-GFP and anti-FLAG
NRXN1β-myc/CFP [3] = molecular target: NRXN1β-myc/CFP (UniProt Q63373); experiment: cell aggregation assay; as the cell aggregation assay, with an increasing amount of soluble ECD (0, 100 and 200 µL) added to the mixture of NRXN1β-expressing cells and DGCR2-expressing cells; only the binder purified
[4] = molecular target: FLAG-tagged human DGCR2 (FLAG-hDGCR2) (human) (UniProt P98153); experiment: cell aggregation assay; HEK 293T cells expressing one protein with RFP (red) mixed with cells expressing the other with GFP (green); 1 h, room temperature, gentle agitation, DMEM with 10% FBS, 50 mM Hepes-NaOH pH 7.4, 10 mM CaCl2, 10 mM MgCl2; aggregates of four or more cells with at least one red and one green cell counted
NRXN1β-myc/CFP [5] = molecular target: NRXN1β-myc/CFP (UniProt Q63373); experiment: co-IP; HEK 293T cells co-transfected with NRXN1β-myc/CFP, NLGN1-YFP and FLAG-hDGCR2 (also in increasing amount), ∆ECD, ∆ICD or Mock; lysates immunoprecipitated with anti-myc antibody and Protein A/G agarose; blotted with anti-NLGN1, anti-myc and anti-FLAG
NRXN1β-myc/CFP [6] = molecular target: NRXN1β-myc/CFP (UniProt Q63373); experiment: cell aggregation assay; HEK 293T cells expressing one protein with RFP (red) mixed with cells expressing the other with GFP (green); 1 h, room temperature, gentle agitation, DMEM with 10% FBS, 50 mM Hepes-NaOH pH 7.4, 10 mM CaCl2, 10 mM MgCl2; aggregates of four or more cells with at least one red and one green cell counted

The chains behind the UniProt entries cited, without tags or fusion partners. Where a name states a change or a piece, a line headed by the entry shows the natural chain unless it says otherwise. A line that says so, or that is headed by a name, gives the form on record, which may keep a tag or linker. Residues count along the entry.
UniProt P98153: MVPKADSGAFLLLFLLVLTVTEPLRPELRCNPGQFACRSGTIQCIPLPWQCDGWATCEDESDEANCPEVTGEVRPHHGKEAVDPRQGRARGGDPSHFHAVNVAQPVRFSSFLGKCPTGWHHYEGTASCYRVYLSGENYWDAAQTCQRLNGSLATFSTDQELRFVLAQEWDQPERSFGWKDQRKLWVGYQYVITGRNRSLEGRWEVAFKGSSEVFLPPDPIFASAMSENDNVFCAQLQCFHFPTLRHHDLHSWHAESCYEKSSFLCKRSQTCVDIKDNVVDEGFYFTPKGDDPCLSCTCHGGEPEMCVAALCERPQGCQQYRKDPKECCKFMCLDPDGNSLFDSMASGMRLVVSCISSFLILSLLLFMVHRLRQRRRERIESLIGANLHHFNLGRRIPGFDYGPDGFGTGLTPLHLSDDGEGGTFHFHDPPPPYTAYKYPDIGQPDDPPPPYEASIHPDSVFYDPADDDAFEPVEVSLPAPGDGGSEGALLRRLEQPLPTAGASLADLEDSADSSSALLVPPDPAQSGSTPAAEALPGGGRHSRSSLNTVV
FLAG-tagged human DGCR2 (FLAG-hDGCR2): residues 22-550 of P98153
UniProt Q63373, residues 47-468: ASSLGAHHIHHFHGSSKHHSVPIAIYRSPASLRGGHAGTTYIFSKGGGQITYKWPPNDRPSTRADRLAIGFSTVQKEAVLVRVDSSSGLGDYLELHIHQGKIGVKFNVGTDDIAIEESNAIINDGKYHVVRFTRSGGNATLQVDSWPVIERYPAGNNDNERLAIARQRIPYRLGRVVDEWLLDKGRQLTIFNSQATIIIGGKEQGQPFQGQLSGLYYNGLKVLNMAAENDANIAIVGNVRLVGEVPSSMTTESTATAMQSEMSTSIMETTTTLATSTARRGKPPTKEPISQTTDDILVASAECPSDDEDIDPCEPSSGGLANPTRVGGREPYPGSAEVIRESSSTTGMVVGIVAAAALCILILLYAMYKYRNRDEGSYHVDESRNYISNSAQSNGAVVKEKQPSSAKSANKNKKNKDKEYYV
UniProt Q62765, residues 46-843: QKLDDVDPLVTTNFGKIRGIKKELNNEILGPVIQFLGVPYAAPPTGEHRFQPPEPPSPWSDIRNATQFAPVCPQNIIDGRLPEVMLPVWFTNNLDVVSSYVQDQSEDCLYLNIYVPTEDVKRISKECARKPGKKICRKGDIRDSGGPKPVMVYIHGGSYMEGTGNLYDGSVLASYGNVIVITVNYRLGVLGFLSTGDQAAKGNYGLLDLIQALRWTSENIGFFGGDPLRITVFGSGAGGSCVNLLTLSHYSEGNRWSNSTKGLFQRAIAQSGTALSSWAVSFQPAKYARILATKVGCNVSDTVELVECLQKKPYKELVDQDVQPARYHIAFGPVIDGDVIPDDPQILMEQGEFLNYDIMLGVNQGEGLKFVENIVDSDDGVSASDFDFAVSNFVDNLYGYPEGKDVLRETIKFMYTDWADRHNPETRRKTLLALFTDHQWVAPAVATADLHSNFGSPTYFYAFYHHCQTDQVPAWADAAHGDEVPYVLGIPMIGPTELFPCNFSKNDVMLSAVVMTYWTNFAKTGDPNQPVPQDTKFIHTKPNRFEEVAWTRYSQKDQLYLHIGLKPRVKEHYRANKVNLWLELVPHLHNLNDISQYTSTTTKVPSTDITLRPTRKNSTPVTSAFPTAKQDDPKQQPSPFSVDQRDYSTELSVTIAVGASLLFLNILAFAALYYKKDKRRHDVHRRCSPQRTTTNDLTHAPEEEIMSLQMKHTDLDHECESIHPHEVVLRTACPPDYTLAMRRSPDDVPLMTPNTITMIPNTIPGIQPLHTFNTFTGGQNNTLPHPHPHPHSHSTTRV
UniProt Q07310, residues 28-1578: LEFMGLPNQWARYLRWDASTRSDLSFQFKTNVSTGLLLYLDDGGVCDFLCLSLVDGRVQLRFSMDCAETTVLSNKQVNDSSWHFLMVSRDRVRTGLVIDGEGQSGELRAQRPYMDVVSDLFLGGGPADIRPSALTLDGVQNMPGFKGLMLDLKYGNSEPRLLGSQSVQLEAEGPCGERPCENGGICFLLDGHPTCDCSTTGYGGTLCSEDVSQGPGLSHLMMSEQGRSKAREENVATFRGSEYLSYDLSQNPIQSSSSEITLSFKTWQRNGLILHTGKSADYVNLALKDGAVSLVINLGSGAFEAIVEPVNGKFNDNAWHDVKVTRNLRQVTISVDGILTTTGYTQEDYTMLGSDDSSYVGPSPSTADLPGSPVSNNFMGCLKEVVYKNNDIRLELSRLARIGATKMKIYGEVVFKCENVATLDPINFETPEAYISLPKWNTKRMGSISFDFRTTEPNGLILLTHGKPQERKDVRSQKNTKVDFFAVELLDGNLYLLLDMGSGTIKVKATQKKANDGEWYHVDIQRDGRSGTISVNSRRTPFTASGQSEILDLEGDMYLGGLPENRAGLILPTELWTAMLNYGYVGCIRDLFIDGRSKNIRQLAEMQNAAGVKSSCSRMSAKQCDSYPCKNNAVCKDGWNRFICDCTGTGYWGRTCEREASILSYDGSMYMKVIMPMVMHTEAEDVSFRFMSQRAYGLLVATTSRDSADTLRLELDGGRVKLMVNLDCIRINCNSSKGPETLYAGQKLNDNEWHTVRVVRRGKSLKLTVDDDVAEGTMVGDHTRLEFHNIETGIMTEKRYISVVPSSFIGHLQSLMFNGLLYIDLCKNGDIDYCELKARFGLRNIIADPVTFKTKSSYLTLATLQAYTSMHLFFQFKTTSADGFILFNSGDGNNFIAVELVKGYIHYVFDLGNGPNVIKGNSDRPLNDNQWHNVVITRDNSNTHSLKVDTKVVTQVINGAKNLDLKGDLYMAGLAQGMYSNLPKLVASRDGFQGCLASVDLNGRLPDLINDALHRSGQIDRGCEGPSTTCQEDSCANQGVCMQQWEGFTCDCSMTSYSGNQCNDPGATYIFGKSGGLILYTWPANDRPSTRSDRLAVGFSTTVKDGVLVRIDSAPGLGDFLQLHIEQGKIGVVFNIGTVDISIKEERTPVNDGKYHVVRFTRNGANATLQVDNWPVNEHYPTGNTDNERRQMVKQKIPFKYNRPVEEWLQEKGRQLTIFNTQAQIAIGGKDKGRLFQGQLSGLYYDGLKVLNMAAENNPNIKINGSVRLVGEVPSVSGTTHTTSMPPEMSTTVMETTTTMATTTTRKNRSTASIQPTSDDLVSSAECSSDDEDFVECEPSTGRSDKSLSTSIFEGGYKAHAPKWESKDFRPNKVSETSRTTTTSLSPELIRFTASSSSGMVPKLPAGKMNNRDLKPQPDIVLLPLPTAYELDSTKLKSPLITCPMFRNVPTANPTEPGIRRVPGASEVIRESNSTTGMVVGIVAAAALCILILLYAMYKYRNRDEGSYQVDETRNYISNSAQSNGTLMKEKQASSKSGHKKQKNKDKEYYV

Substance: Neurolign (NLGN) 4-YFP (from UniProt Q8N0W4 42-816)
binding [2]: no binding

Substance: FLAG-hDGCR2-ECD-Fc (secretable ECD) (from UniProt P98153 22-346) (Fc fusion)
binding (NRXN1β-myc/CFP [3]): binds

Substance: Neurolign (NLGN) 1-YFP (from UniProt Q62765 46-843)
binding (NRXN1β-myc/CFP [5]): binds
binding [2]: no binding
binding (NRXN1β-myc/CFP [6]): binds

Other lines, results leading:

binding [1]: no binding
Substance: NRXN3α-CFP (from UniProt Q07310 28-1578)

binding [4]: binds
Substance: NRXN1β-myc/CFP (from UniProt Q63373 47-468)
